# Results published in patent US20210008161A1, “METHODS AND COMPOSITIONS FOR IMPROVED HOMOLOGY DIRECTED REPAIR” (CRISPR THERAPEUTICS AG, priority 2019, published 2021).
# How the values were obtained:
# [1] = test system: human LT-HSPCs administered to cKit mice; assay: Engraftment (percent chimerism) of edited human LT-HSPCs in mice by flow cytometry; assay type: in vivo, mouse; conditions: Example 5; 16 weeks; 0.25×10^6 LT-HSPCs; compared to AAV+RNP alone; FIG. 16
# Protocol: The cells were administered by intravenous injection to cKit mice at 2 days following electroporation. Recipient mice were treated with sublethal irradiation (100 cGy) at 1 day prior to administration of LT-HSPCs to eliminate hematopoietic cells in the bone marrow and enable engraftment of the donor cells. Animals were evaluated for presence of human hematopoietic cells in peripheral blood at 8 and 16 weeks following LT-HSPC administration. The bone marrow was also evaluated for engraftment and maintenance of the HBB gene-edit at 16 weeks following LT-HSPC administration.
# Presence of human hematopoietic cells was measured by flow cytometry in mouse blood or bone marrow samples. Cells were gated on singlet, live cells. […] Engraftment was measured as percent chimerism which was defined as the quantity of human CD45 positive cells divided by the total number of CD45 positive cells (e.g., human and mouse CD45 expressing cells combined). The lineage of human CD45 positive cells was determined using markers for CD19 (e.g., B cells), CD3 (e.g., T cells), CD33 (e.g., myeloid cells), and CD34 (hematopoietic stem/progenitor cells (HSPCs)). […]
# A dose of 0.5×10^6 cells was administered by intravenous injection to cKit mice at 2 days following electroporation. […] Animals were evaluated for presence of human hematopoietic cells in peripheral blood at 8 and 16 weeks following LT-HSPC administration. […]
# CD34-expressing LT-HSPCs = assay: HDR incorporation of E7V sickle mutation at HBB locus by NGS assay
substance,measurement,setting,value
"i53: polypeptide inhibitor of 53BP1 (SEQ ID NO: 70), introduced as an mRNA-encoded protein (ORF SEQ ID NO: 69)",percent chimerism in bone marrow,[1],no further decrease
same,incorporation of the E7V gene edit,"CD34-expressing LT-HSPCs; AAV.307 + Cas9/R02 gRNA RNP, 1 μg mRNA encoding i53, FIG. 10",68%
same,incorporation of the sickle cell gene-edit by HDR,"CD34-expressing LT-HSPCs; LT-HSPCs isolated by Mozobil+GCSF, FIG. 12A",approximately 60%
same,fold increase in HDR efficiency,"CD34-expressing LT-HSPCs; LT-HSPCs isolated by Mozobil+GCSF, over RNP+AAV alone, FIG. 12A",approximately 1.5 fold
same,cells incorporating the sickle cell gene-edit,"CD34-expressing LT-HSPCs; LT-HSPCs isolated using Mozobil alone, FIG. 12B",approximately 70%
